In assay [1] the test system is human peripheral blood mononuclear cells (PBMCs). Description: Inhibition of human PBMC activation (secreted TNF-α ELISA). The format is cell-based. The following applies: PBMCs activated by anti-CD3 and CD28 antibodies, 24 h. Here is the method: (§1) Human PBMCs were isolated from fresh venous blood of healthy donors through ficoll gradient centrifugation, followed by resuspension in RPMI1640 medium with 10% FBS and plating in 96-well plates at a density of 1×10^6 cells/mL. Human T cells were purified from the isolated PBMCs using T cell enrichment kit. Purified PBMCs and T cells were pretreated for 1 h at 37° C. with 5% CO2 with various concentrations of purified BLV1H12-Moka1 fusion antibodies and then activated by anti-CD3 and CD28 antibodies. After 24 h treatment, supernatant was collected for measurement of the levels of secreted TNF-α using ELISA kit.

For a further assay, the system named is Human T cells. The assay is described as follows: Inhibition of human T cells activation (secreted TNF-α ELISA). The format is cell-based. The settings on record: T cells activated by anti-CD3 and CD28 antibodies, 24 h. Here is the method:
as §1
Human T cells were purified from the isolated PBMCs using T cell enrichment kit. Purified T cells were pretreated for 1 h at 37° C. with 5% CO2 with various concentrations of purified BLV1H12-VM24 fusion antibodies and then activated by anti-CD3 and CD28 antibodies. After 24 h treatment, supernatant was collected for measurement of the levels of secreted TNF-α using ELISA kit. FIGS. 18B-C and Table 15 show the BLV1H12-VM24 fusion antibodies inhibitory activities on T cells activation.
In general terms: In an ELISA, binding on a coated surface is turned into a signal by an enzyme label.

B1: Ab-Moka L0: Moka1 replacing the knob domain of BLV1H12 CDR3H, no linker (protein)
chain: QVQLRESGPSLVKPSQTLSLTCTASGFSLSDKAVGWVRQAPGKALEWLGSIDTGGNTGYNPGLKSRLSITKDNSKSQVSLSVSSVTTEDSATYYCTSVHQETKKYQSTPLGPARSLPQSFLLKCLEQVRKIQADGAELQERLCAAHKLCHPEELMLLRHSLGIPQAPLSSCSSQSLQLTSCLNQLHGGLFLYQGLLQALAGISPELAPTLDTLQLDVTDFATNIWLQMEDLGAAPAVQPTQGAMPTFTSAFQRRAGGVLVASQLHRFLELAYRGLRYLAEPSYTYNYEWHVDVWGQGLLVTVSSASTTAPKVYPLSSCCGDKSSSTVTLGCLVSSYMPEPVTVTWNSGALKSGVHTFPAVLQSSGLYSLSSMVTVPGSTSGQTFTCNVAHPASSTKVDKAV[not shown - human IgG1 Fc]
On to B1, for which the “F.I. (secreted TNF-α, ELISA)” value in assay [1] (2 nM) was determined as 1679; in assay [1] (20 nM), 1441; in assay [1] (200 nM), 928.1; in assay [1] (400 nM) it was 665.

B2: Ab-Moka L1: Moka1 replacing the knob domain of BLV1H12 CDR3H with GGGGS linkers (protein)
chain: QVQLRESGPSLVKPSQTLSLTCTASGFSLSDKAVGWVRQAPGKALEWLGSIDTGGNTGYNPGLKSRLSITKDNSKSQVSLSVSSVTTEDSATYYCTSVHQETKKYQSGGGGSTPLGPARSLPQSFLLKCLEQVRKIQADGAELQERLCAAHKLCHPEELMLLRHSLGIPQAPLSSCSSQSLQLTSCLNQLHGGLFLYQGLLQALAGISPELAPTLDTLQLDVTDFATNIWLQMEDLGAAPAVQPTQGAMPTFTSAFQRRAGGVLVASQLHRFLELAYRGLRYLAEPGGGGSSYTYNYEWHVDVWGQGLLVTVSSASTTAPKVYPLSSCCGDKSSSTVTLGCLVSSYMPEPVTVTWNSGALKSGVHTFPAVLQSSGLYSLSSMVTVPGSTSGQTFTCNVAHPASSTKVDKAV[not shown - human IgG1 Fc]
For the molecule B2, the “F.I. (secreted TNF-α, ELISA)” value in assay [1] (2 nM) came out at 1394.048; in assay [1] (20 nM), 1295; in assay [1] (200 nM) it was 773.4; in assay [1] (400 nM) it was 505.102; with Human T cells (0.3658 nM), 479.8675; in the assay with Human T cells (1.09739 nM) it was 498.558. In addition, the “F.I. (secreted TNF-α, ELISA)” value was 452.342 in the assay on Human T cells (3.29218 nM); 445.013 with Human T cells (9.87654 nM); 467.268 in the assay on Human T cells (29.62963 nM); 360.2535 in the assay on Human T cells (88.88889 nM); 233.809 in the assay on Human T cells (266.66667 nM); 226.155 with Human T cells (800 nM).

Values taken from patent US10774132B2, “Ultralong complementarity determining regions and uses thereof” (THE SCRIPPS RESEARCH INSTITUTE, priority 2012, dated 2020).
